From the supplement of paper PMC8728848
The list shows a part of the results.

Tests used:
Assay in all cases: glycan array binding signal (z-score within array); higher = stronger binding
Details in all cases: glycan notation: IUPAC condensed, linker removed
[1] = molecular target: Neu5Ac(a2-6)Gal(b1-4)GlcNAc(b1-6)[Gal(b1-3)]GalNAc
In short: (§1)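 Glycan array data came from 3228 arrays in the Consortium for Functional Glycomics database, and only arrays with an available protein sequence were kept. Glycan names were put into IUPAC-condensed notation, and columns mapping to the same glycan were averaged. The binding signal is a within-array Z-score, averaged across arrays of one protein sequence run at different concentrations or buffers and across linkers. A negative Z-score can be read as non-binding.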

[2] = molecular target: Neu5Ac(a2-6)Gal(b1-4)GlcNAc6S
In short: as §1

Neu5Ac(a2-6)GalNAc = molecular target: Neu5Ac(a2-6)GalNAc
In short: as §1

[3] = molecular target: Neu5Ac(a2-6)GalNAc(b1-4)GlcNAc
In short: as §1

[4] = molecular target: Neu5Ac(a2-6)GalNAc(b1-4)GlcNAc6S
In short: as §1

[5] = molecular target: Neu5Ac(a2-6)GlcNAc(b1-4)GlcNAc
In short: as §1

[6] = molecular target: Neu5Ac(a2-6)GlcNAc(b1-4)GlcNAc(b1-4)GlcNAc
In short: as §1

Neu5Ac(a2-8)Neu5Ac = molecular target: Neu5Ac(a2-8)Neu5Ac
In short: as §1

[7] = molecular target: Neu5Ac(a2-8)Neu5Ac(a2-3)Gal(b1-3)GalNAc(b1-4)[Neu5Ac(a2-3)]Gal(b1-4)Glc
In short: as §1

[8] = molecular target: Neu5Ac(a2-8)Neu5Ac(a2-3)Gal(b1-3)GalNAc(b1-4)[Neu5Ac(a2-8)Neu5Ac(a2-3)]Gal(b1-4)Glc
In short: as §1

[9] = molecular target: Neu5Ac(a2-8)Neu5Ac(a2-3)Gal(b1-4)Glc
In short: as §1

[10] = molecular target: Neu5Ac(a2-8)Neu5Ac(a2-3)Gal(b1-4)GlcNAc
In short: as §1

[11] = molecular target: Neu5Ac(a2-8)Neu5Ac(a2-3)[Gal(b1-3)GalNAc(b1-4)]Gal(b1-4)Glc
In short: as §1

[12] = molecular target: Neu5Ac(a2-8)Neu5Ac(a2-3)[GalNAc(b1-4)]Gal(b1-4)Glc
In short: as §1

[13] = molecular target: Neu5Ac(a2-8)Neu5Ac(a2-8)Neu5Ac
In short: as §1

[14] = molecular target: Neu5Ac(a2-8)Neu5Ac(a2-8)Neu5Ac(a2-3)Gal(b1-4)Glc
In short: as §1

[15] = molecular target: Neu5Ac(a2-8)Neu5Ac(a2-8)Neu5Ac(a2-3)[Gal(b1-3)GalNAc(b1-4)]Gal(b1-4)Glc
In short: as §1

[16] = molecular target: Neu5Ac(a2-8)Neu5Ac(a2-8)Neu5Ac(a2-3)[GalNAc(b1-4)]Gal(b1-4)Glc
In short: as §1

[17] = molecular target: Neu5Ac(a2-8)Neu5Ac(a2-8)Neu5Ac(a2-8)Neu5Ac(a2-3)[GalNAc(b1-4)]Gal(b1-4)Glc
In short: as §1

[18] = molecular target: Neu5Ac(a2-8)Neu5Gc(a2-3)Gal(b1-4)GlcNAc
In short: as §1

[19] = molecular target: Neu5Ac(b2-6)Gal(b1-4)GlcNAc
In short: as §1

Neu5Ac(b2-6)GalNAc = molecular target: Neu5Ac(b2-6)GalNAc
In short: as §1

[20] = molecular target: Neu5Ac9Ac(a2-3)Gal(b1-3)GlcNAc
In short: as §1

[21] = molecular target: Neu5Ac9Ac(a2-3)Gal(b1-4)GlcNAc
In short: as §1

[22] = molecular target: Neu5Ac9Ac(a2-6)Gal(b1-4)GlcNAc
In short: as §1

[23] = molecular target: Neu5Gc(a2-3)Gal(b1-3)GlcNAc
In short: as §1

[24] = molecular target: Neu5Gc(a2-3)Gal(b1-3)[Fuc(a1-4)]GlcNAc
In short: as §1

Neu5Gc(a2-3)Gal(b1-4)Glc = molecular target: Neu5Gc(a2-3)Gal(b1-4)Glc
In short: as §1

[25] = molecular target: Neu5Gc(a2-3)Gal(b1-4)GlcNAc
In short: as §1

[26] = molecular target: Neu5Gc(a2-3)Gal(b1-4)GlcNAc(b1-3)Gal(b1-4)GlcNAc(b1-2)Man(a1-3)[Neu5Gc(a2-3)Gal(b1-4)GlcNAc(b1-3)Gal(b1-4)GlcNAc(b1-2)Man(a1-6)]Man(b1-4)GlcNAc(b1-4)GlcNAc
In short: as §1

[27] = molecular target: Neu5Gc(a2-3)Gal(b1-4)[Fuc(a1-3)]GlcNAc
In short: as §1

[28] = molecular target: Neu5Gc(a2-6)Gal(b1-4)GlcNAc
In short: as §1

Neu5Gc(a2-6)GalNAc = molecular target: Neu5Gc(a2-6)GalNAc
In short: as §1

[29] = molecular target: Neu5Gc(a2-8)Neu5Ac(a2-3)Gal(b1-4)GlcNAc
In short: as §1

[30] = molecular target: Neu5Gc(a2-8)Neu5Gc(a2-3)Gal(b1-4)GlcNAc
In short: as §1

[31] = molecular target: Neu5Gc(a2-8)Neu5Gc(a2-3)Gal(b1-4)GlcNAc(b1-3)Gal(b1-4)GlcNAc
In short: as §1

[32] = molecular target: Neu5Gc(a2-8)Neu5Gc(a2-6)Gal(b1-4)GlcNAc
In short: as §1

[33] = molecular target: Neu5Gc(b2-6)Gal(b1-4)GlcNAc
In short: as §1

B1: Clrb (Mus musculus) (protein)
chain: ITGATKTEQIPVNKTYAACPQNWIGVENKCFYFSEYPSNWTFAQAFCMAQEAQLARFDNQDELNFLMRYKANFDSWIGLHRESSEHPWKWTDNTEYNNTIPIRGEERFAYLNNNGISSTRIYSLRMWICSKLNSYSLHCQTPFFPSGTKHHHHHHHHG
[1]
  glycan array binding signal (z-score): -0.367
[2]
  glycan array binding signal (z-score): -0.069
Neu5Ac(a2-6)GalNAc
  glycan array binding signal (z-score): -0.508
[3]
  glycan array binding signal (z-score): 4.69
[4]
  glycan array binding signal (z-score): 0.022
[5]
  glycan array binding signal (z-score): 0.909
[6]
  glycan array binding signal (z-score): 1.68
Neu5Ac(a2-8)Neu5Ac
  glycan array binding signal (z-score): -0.394
[7]
  glycan array binding signal (z-score): 0.234
[8]
  glycan array binding signal (z-score): -0.203
[9]
  glycan array binding signal (z-score): -0.322
[10]
  glycan array binding signal (z-score): -0.297
[11]
  glycan array binding signal (z-score): -0.261
[12]
  glycan array binding signal (z-score): -0.312
[13]
  glycan array binding signal (z-score): -0.334
[14]
  glycan array binding signal (z-score): -0.43
[15]
  glycan array binding signal (z-score): -0.421
[16]
  glycan array binding signal (z-score): -0.358
[17]
  glycan array binding signal (z-score): -0.449
[18]
  glycan array binding signal (z-score): -0.465
[19]
  glycan array binding signal (z-score): -0.294
Neu5Ac(b2-6)GalNAc
  glycan array binding signal (z-score): 0.034
[20]
  glycan array binding signal (z-score): -0.221
[21]
  glycan array binding signal (z-score): -0.34
[22]
  glycan array binding signal (z-score): -0.332
[23]
  glycan array binding signal (z-score): -0.384
[24]
  glycan array binding signal (z-score): -0.2
Neu5Gc(a2-3)Gal(b1-4)Glc
  glycan array binding signal (z-score): -0.311
[25]
  glycan array binding signal (z-score): -0.419
[26]
  glycan array binding signal (z-score): -0.348
[27]
  glycan array binding signal (z-score): -0.434
[28]
  glycan array binding signal (z-score): -0.137
Neu5Gc(a2-6)GalNAc
  glycan array binding signal (z-score): -0.377
[29]
  glycan array binding signal (z-score): -0.469
[30]
  glycan array binding signal (z-score): -0.227
[31]
  glycan array binding signal (z-score): -0.287
[32]
  glycan array binding signal (z-score): -0.334
[33]
  glycan array binding signal (z-score): -0.401
